# Test results as given in the supplement of paper PMC11741623.
# The other results are listed elsewhere or left out. Interaction screen of human proteins with wild-type SARS-CoV-2 proteins by split-DHFR complementation in yeast, 1 µg/mL methotrexate. Value = fitness of the pair (three or more lineages) minus that of the viral protein without a human partner, on a scale set by negative (0) and fused positive (1) controls, mean of up to three cultures; higher = more likely to interact. Active = false discovery rate below 0.05 (one-sided t-test) in at least one culture. Nearly all pairs are not hits, and differences among them are mostly noise (correlation between cultures about 0.3); most hits were seen in one culture only. Human sequences are the Swiss-Prot entries looked up by gene name; the clone may be another isoform. NSP2 values were corrected by the authors for a growth advantage. Listed are human proteins with a hit and a random twelfth of the others.
# B1: KCMF1, Q9P0J7 (protein)
# chain: MSRHEGVSCDACLKGNFRGRRYKCLICYDYDLCASCYESGATTTRHTTDHPMQCILTRVDFDLYYGGEAFSVEQPQSFTCPYCGKMGYTETSLQEHVTSEHAETSTEVICPICAALPGGDPNHVTDDFAAHLTLEHRAPRDLDESSGVRHVRRMFHPGRGLGGPRARRSNMHFTSSSTGGLSSSQSSYSPSNREAMDPIAELLSQLSGVRRSAGGQLNSSGPSASQLQQLQMQLQLERQHAQAARQQLETARNATRRTNTSSVTTTITQSTATTNIANTESSQQTLQNSQFLLTRLNDPKMSETERQSMESERADRSLFVQELLLSTLVREESSSSDEDDRGEMADFGAMGCVDIMPLDVALENLNLKESNKGNEPPPPPL
# B2: PVALB, P20472 (protein)
# chain: MSMTDLLNAEDIKKAVGAFSATDSFDHKKFFQMVGLKKKSADDVKKVFHMLDKDKSGFIEEDELGFILKGFSPDARDLSAKETKMLMAAGDKDGDGKIGVDEFSTLVAES
# B3: NDUFA4L2, Q9NRX3 (protein)
# chain: MAGASLGARFYRQIKRHPGIIPMIGLICLGMGSAALYLLRLALRSPDVCWDRKNNPEPWNRLSPNDQYKFLAVSTDYKKLKKDRPDF
# B4: KDELR3, O43731 (protein)
# chain: MNVFRILGDLSHLLAMILLLGKIWRSKCCKGISGKSQILFALVFTTRYLDLFTNFISIYNTVMKVVFLLCAYVTVYMIYGKFRKTFDSENDTFRLEFLLVPVIGLSFLENYSFTLLEILWTFSIYLESVAILPQLFMISKTGEAETITTHYLFFLGLYRALYLANWIRRYQTENFYDQIAVVSGVVQTIFYCDFFYLYVTKVLKGKKLSLPMPI
# Target: SARS-CoV-2 E
# Assay: yeast fitness gain over the viral ORF with no human partner (scaled fitness); higher = more likely to interact
# Protocol: (§1)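 Split mouse DHFR complementation in pooled diploid yeast: human ORFeome clones carry one fragment and viral ORFs the other; barcoded lineages compete in 1 µg/mL methotrexate and fitness is read by barcode sequencing in up to three cultures.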
row,Binder,yeast fitness gain
1,B1,inactive: -0.0461
2,B2,inactive: -0.0531
3,B3,inactive: -0.112
4,B4,inactive: -0.1

# Target: SARS-CoV-2 M
# Assay: as above
# Protocol: as §1
row,Binder,yeast fitness gain
1,B1,inactive: -0.00854
2,B2,inactive: 0.0671
3,B3,inactive: -0.0192
4,B4,inactive: -0.0841

# Target: SARS-CoV-2 N
# Assay: as above
# Protocol: as §1
row,Binder,yeast fitness gain
1,B1,inactive: 0.0427
2,B2,inactive: -0.115
3,B3,inactive: -0.149

# Target: SARS-CoV-2 NSP1
# Assay: as above
# Protocol: as §1
row,Binder,yeast fitness gain
1,B1,inactive: 0.0242
2,B2,inactive: 0.0967
3,B3,inactive: 0.00169
4,B4,inactive: 0.0514

# Target: SARS-CoV-2 NSP10
# Assay: as above
# Protocol: as §1
row,Binder,yeast fitness gain
1,B1,inactive: 0.0474
2,B2,inactive: 0.00812
3,B3,inactive: -0.00508
4,B4,inactive: 0.0123

# Target: SARS-CoV-2 NSP12
# Assay: as above
# Protocol: as §1
row,Binder,yeast fitness gain
1,B1,inactive: 0.0371
2,B2,inactive: 0.0524
3,B3,inactive: 0.0189

# Target: SARS-CoV-2 NSP13
# Assay: as above
# Protocol: as §1
row,Binder,yeast fitness gain
1,B1,inactive: -0.00554
2,B2,inactive: 0.00509
3,B3,inactive: -0.0293

# Target: SARS-CoV-2 NSP14
# Assay: as above
# Protocol: as §1
row,Binder,yeast fitness gain
1,B1,inactive: -0.163
2,B2,inactive: 0.0954
3,B3,inactive: 0.0359

# Target: SARS-CoV-2 NSP15
# Assay: as above
# Protocol: as §1
row,Binder,yeast fitness gain
1,B1,inactive: -0.0309
2,B2,inactive: -0.00628
3,B3,inactive: 0.0326
4,B4,inactive: 0.0667

# Target: SARS-CoV-2 NSP16
# Assay: as above
# Protocol: as §1
row,Binder,yeast fitness gain
1,B1,inactive: -0.0298
2,B2,inactive: 0.0553
3,B3,inactive: 0.0616

# Target: SARS-CoV-2 NSP2
# Assay: as above
# Protocol: as §1
row,Binder,yeast fitness gain
1,B1,inactive: -0.0837
2,B2,active: 0.151
3,B3,inactive: -0.154
4,B4,inactive: -0.29

# Target: SARS-CoV-2 NSP4
# Assay: as above
# Protocol: as §1
row,Binder,yeast fitness gain
1,B1,inactive: -0.0611
2,B2,inactive: 0.12
3,B3,inactive: -0.107
4,B4,active: 0.746

# Target: SARS-CoV-2 NSP5
# Assay: as above
# Protocol: as §1
row,Binder,yeast fitness gain
1,B1,inactive: 0.0239
2,B2,inactive: 0.00431
3,B3,inactive: 0.00228
4,B4,inactive: 0.0823

# Target: SARS-CoV-2 NSP6
# Assay: as above
# Protocol: as §1
row,Binder,yeast fitness gain
1,B1,inactive: -0.0502
2,B2,inactive: 0.0367
3,B3,inactive: -0.0277
4,B4,inactive: 0.118

# Target: SARS-CoV-2 NSP7
# Assay: as above
# Protocol: as §1
row,Binder,yeast fitness gain
1,B1,inactive: 0.0633
2,B2,inactive: 0.0143
3,B3,inactive: 0.00689
4,B4,inactive: -0.129

# Target: SARS-CoV-2 NSP8
# Assay: as above
# Protocol: as §1
row,Binder,yeast fitness gain
1,B1,inactive: 0.0512
2,B2,inactive: 0.0124
3,B3,inactive: 0.0329
4,B4,inactive: 0.00415

# Target: SARS-CoV-2 NSP9
# Assay: as above
# Protocol: as §1
row,Binder,yeast fitness gain
1,B1,inactive: -0.0497
2,B2,inactive: 0.00385
3,B3,inactive: 0.021
4,B4,inactive: 0.0682

# Target: SARS-CoV-2 ORF10
# Assay: as above
# Protocol: as §1
row,Binder,yeast fitness gain
1,B1,inactive: 0.0318
2,B2,inactive: -0.0175
3,B3,inactive: -0.0402
4,B4,inactive: 0.0398

# Target: SARS-CoV-2 ORF3A
# Assay: as above
# Protocol: as §1
row,Binder,yeast fitness gain
1,B1,inactive: 0.0116
2,B2,inactive: 0.0967
3,B3,inactive: 0.0869
4,B4,inactive: 0.0462

# Target: SARS-CoV-2 ORF3B
# Assay: as above
# Protocol: as §1
row,Binder,yeast fitness gain
1,B1,inactive: 0.0248
2,B2,inactive: 0.0199
3,B3,inactive: 0.00596

# Target: SARS-CoV-2 ORF6
# Assay: as above
# Protocol: as §1
row,Binder,yeast fitness gain
1,B1,inactive: 0.012
2,B2,inactive: 0.0258
3,B3,inactive: 0.0349

# Target: SARS-CoV-2 ORF7A
# Assay: as above
# Protocol: as §1
row,Binder,yeast fitness gain
1,B1,inactive: 0.0268
2,B2,inactive: 0.024
3,B3,inactive: -0.0154

# Target: SARS-CoV-2 ORF7B
# Assay: as above
# Protocol: as §1
row,Binder,yeast fitness gain
1,B1,inactive: -0.029
2,B2,inactive: 0.0492
3,B3,inactive: 0.0313
4,B4,inactive: 0.0902

# Target: SARS-CoV-2 ORF8
# Assay: as above
# Protocol: as §1
row,Binder,yeast fitness gain
1,B1,inactive: 0.0503
2,B2,inactive: 0.0448
3,B3,inactive: -0.0155
4,B4,inactive: 0.0439

# Target: SARS-CoV-2 ORF9B
# Assay: as above
# Protocol: as §1
row,Binder,yeast fitness gain
1,B1,inactive: 0.0152
2,B2,inactive: -0.0336
3,B3,inactive: -0.00477

# Target: SARS-CoV-2 ORF9Bwu (the 73-codon ORF)
# Assay: as above
# Protocol: as §1
row,Binder,yeast fitness gain
1,B1,inactive: 0.0347
2,B2,inactive: 0.0539
3,B3,inactive: 0.0132
4,B4,inactive: -0.0156

# Target: SARS-CoV-2 S
# Assay: as above
# Protocol: as §1
row,Binder,yeast fitness gain
1,B1,inactive: 0.00116
2,B2,inactive: -0.0516
3,B3,inactive: -0.0861
4,B4,inactive: 0.0125
